Experimental data as given in the supplement of paper PMC10441789.
The list shows a part of the results. Antibody binding of pooled human sera (four to six donors per pool; dilution not stated) to peptides of the Trypanosoma cruzi antigen TSSA on microarrays. Quantile-normalised fluorescence in arbitrary units, mean of duplicate arrays; higher = more binding. No active / inactive call. The uninfected pools are read here as the healthy donors of the same country. The strongest signals lie near the top of the scale (about 60,000).

Legend:
Assay in all cases: antibody binding signal (normalised fluorescence) (arbitrary fluorescence units); higher = stronger serum antibody binding to peptide
[1] = test system: pooled sera of chronic Chagas disease patients, Bolivia
Experimental: (§1)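 Microarray of 15-residue peptides over residues 30-55 of Trypanosoma cruzi TSSAII, each with 1 to 10 substitutions at naturally variable positions, probed with one serum pool per country.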

[2] = test system: pooled sera of chronic Chagas disease patients, Brazil
Experimental: as §1

[3] = test system: pooled sera of chronic Chagas disease patients, Colombia
Experimental: as §1

[4] = test system: pooled sera of chronic Chagas disease patients, Mexico
Experimental: as §1

[5] = test system: pooled sera of chronic Chagas disease patients, USA
Experimental: as §1

[6] = test system: pooled sera of uninfected people, Argentina
Experimental: as §1

[7] = test system: pooled sera of uninfected people, Bolivia
Experimental: as §1

[8] = test system: pooled sera of uninfected people, Brazil
Experimental: as §1

[9] = test system: pooled sera of uninfected people, Colombia
Experimental: as §1

[10] = test system: pooled sera of uninfected people, Mexico
Experimental: as §1

[11] = test system: pooled sera of uninfected people, USA
Experimental: as §1

Row | Sequence | antibody binding signal [1] | antibody binding signal [2] | antibody binding signal [3] | antibody binding signal [4] | antibody binding signal [5] | antibody binding signal [6] | antibody binding signal [7] | antibody binding signal [8] | antibody binding signal [9] | antibody binding signal [10] | antibody binding signal [11]
1 | PSGKEKKAATGEAPS | 4450 | 16700 | 3840 | 4700 | 19200 | 595 | 260 | 110 | 305 | 97 | 138
2 | NKAATGGTPSQSGAS | 662 | 1700 | 558 | 399 | 271 | 912 | 873 | 862 | 364 | 1310 | 1100
3 | TSSTPPSGTDKKPAT | 7150 | 43700 | 13300 | 49600 | 10100 | 981 | 214 | 280 | 274 | 3280 | 465
4 | GTDNKAATGGTPSQS | 646 | 32200 | 775 | 647 | 179 | 274 | 735 | 1780 | 190 | 358 | 168
5 | NKAATGEAPSPSGAS | 40900 | 35800 | 224 | 536 | 27300 | 458 | 769 | 573 | 348 | 224 | 908
6 | PPSGTDKKPATGGTP | 4300 | 38200 | 4820 | 43000 | 3650 | 701 | 642 | 855 | 462 | 4070 | 366
7 | SSTPPSGTDNKPAAG | 50400 | 52900 | 7100 | 30100 | 35400 | 1520 | 744 | 616 | 396 | 1620 | 466
8 | GKEKKAAAGGTPSPP | 193 | 256 | 1780 | 1100 | 1970 | 110 | 83.7 | 452 | 106 | 86.1 | 114
9 | KDKKPAAGETPSQSG | 194 | 1480 | 176 | 146 | 353 | 97.2 | 88.4 | 108 | 149 | 73.5 | 73.3
10 | SGKENKTAAGGAPSQ | 532 | 19200 | 10200 | 4700 | 21300 | 5600 | 785 | 153 | 305 | 331 | 221
11 | SGKDKKAATGGAPSP | 206 | 235 | 904 | 1010 | 1100 | 226 | 95.3 | 86.3 | 303 | 73.7 | 126
12 | GKDKKTATGGAPSQS | 183 | 380 | 1420 | 1630 | 1400 | 215 | 85.2 | 101 | 76.1 | 114 | 116
13 | SGKDNKPATGEAPSP | 46700 | 51200 | 450 | 343 | 40000 | 1260 | 948 | 286 | 313 | 372 | 136
14 | GTENKTATGGTPSQS | 1960 | 1780 | 4000 | 3280 | 2480 | 481 | 456 | 377 | 215 | 970 | 164
15 | GTDKKTATGEAPSQP | 21800 | 38200 | 1210 | 803 | 19700 | 221 | 162 | 272 | 97 | 232 | 109
16 | SSTPPSGKDNKAAAG | 9540 | 3890 | 285 | 36400 | 2420 | 473 | 494 | 145 | 190 | 106 | 215
17 | TDNKPAAGGTPSQPG | 447 | 5480 | 993 | 214 | 351 | 189 | 426 | 1030 | 455 | 531 | 115
18 | SGTENKTATGETPSQ | 20400 | 23700 | 208 | 192 | 10600 | 487 | 389 | 186 | 220 | 198 | 160
19 | GTDKKPATGGTPSQP | 401 | 4290 | 6630 | 825 | 872 | 336 | 466 | 679 | 186 | 564 | 157
20 | STPPSGKDNKPATGG | 4510 | 31700 | 294 | 39600 | 14800 | 724 | 1500 | 177 | 183 | 316 | 556
21 | PSGKEKKPATGGTPS | 4020 | 6920 | 11800 | 10800 | 7110 | 447 | 578 | 219 | 168 | 121 | 214
22 | DNKTATGGTPSPPGA | 1140 | 436 | 407 | 290 | 509 | 222 | 193 | 384 | 532 | 232 | 171
23 | ENKTATGGAPSPSGA | 1960 | 950 | 542 | 400 | 1200 | 399 | 180 | 669 | 183 | 282 | 200
24 | TDKKTATGGTPSPSG | 635 | 668 | 4420 | 550 | 1770 | 250 | 109 | 259 | 823 | 106 | 133
25 | PSGKEKKPAAGGTPS | 513 | 9020 | 10900 | 10800 | 8070 | 367 | 228 | 368 | 197 | 81.6 | 178
26 | KENKTAAGGTPSPSG | 184 | 285 | 2420 | 208 | 1250 | 174 | 87.2 | 353 | 109 | 188 | 133
27 | KEKKPAAGETPSQSG | 216 | 882 | 123 | 166 | 408 | 113 | 97.4 | 114 | 197 | 81.1 | 342

Row | Sequence | antibody binding signal [1] | antibody binding signal [2] | antibody binding signal [3] | antibody binding signal [4] | antibody binding signal [5] | antibody binding signal [6] | antibody binding signal [7] | antibody binding signal [8] | antibody binding signal [9] | antibody binding signal [10] | antibody binding signal [11]
28 | SGTDNKTAAGEAPSP | 736 | 41700 | 242 | 248 | 8430 | 124 | 603 | 1060 | 187 | 108 | 200
29 | PSGTDKKTATGETPS | 1360 | 5450 | 1540 | 719 | 6960 | 218 | 549 | 182 | 193 | 329 | 245
30 | GKEKKTATGGTPSPP | 421 | 355 | 2910 | 2540 | 2930 | 190 | 175 | 122 | 131 | 90.3 | 100
31 | KENKAAAGEAPSPSG | 232 | 13400 | 170 | 222 | 10600 | 144 | 85 | 80.6 | 103 | 85.2 | 80.3
32 | PPSGKDNKAATGGAP | 299 | 2400 | 550 | 2280 | 2350 | 521 | 426 | 126 | 239 | 91.6 | 239
33 | GKEKKPATGGTPSQP | 825 | 595 | 1790 | 1710 | 2100 | 203 | 124 | 623 | 99.3 | 349 | 265
34 | SGKDKKAAAGETPSP | 374 | 1020 | 942 | 765 | 1880 | 146 | 123 | 98.2 | 265 | 85.6 | 175
35 | SGTDKKTATGGAPSQ | 423 | 2900 | 5800 | 1590 | 1330 | 365 | 385 | 136 | 155 | 556 | 183
36 | SGKENKTATGGTPSP | 1010 | 17500 | 5120 | 3460 | 19400 | 7090 | 1870 | 144 | 419 | 531 | 182
37 | TISTPPSGKEKKPAA | 317 | 627 | 266 | 33000 | 441 | 940 | 622 | 204 | 321 | 111 | 259
38 | TENKPAAGGTPSQSG | 830 | 2020 | 1270 | 904 | 327 | 297 | 797 | 1110 | 401 | 378 | 245
39 | SGTEKKAATGGTPSP | 594 | 1660 | 1270 | 1610 | 2130 | 309 | 543 | 994 | 1720 | 163 | 201
40 | SSTPPSGTENKAATG | 49900 | 54700 | 438 | 4010 | 34100 | 4230 | 671 | 481 | 764 | 409 | 717
41 | GTDNKPATGGTPSPP | 715 | 42900 | 1320 | 439 | 519 | 210 | 675 | 583 | 583 | 423 | 156
42 | KPAAGEAPSPSGASS | 579 | 12000 | 163 | 3180 | 10400 | 159 | 148 | 130 | 85.4 | 83.2 | 204
43 | GTEKKPAAGEAPSQS | 6200 | 15400 | 1460 | 2610 | 15500 | 145 | 1110 | 2250 | 98.8 | 428 | 1020
44 | PPSGTDNKPAAGETP | 40800 | 45700 | 3010 | 2470 | 16400 | 965 | 679 | 422 | 508 | 864 | 315
45 | TDNKTAAGGAPSQPG | 1090 | 3600 | 4300 | 398 | 282 | 277 | 279 | 768 | 196 | 227 | 201
46 | KDNKTATGETPSQPG | 887 | 32300 | 2250 | 247 | 6970 | 494 | 549 | 321 | 355 | 204 | 247
47 | SSTPPSGTDKKAAAG | 4880 | 36000 | 7230 | 29900 | 5880 | 869 | 123 | 162 | 206 | 1410 | 236
48 | PPSGKEKKAAAGGTP | 244 | 2120 | 3330 | 4090 | 3560 | 318 | 191 | 474 | 207 | 81.7 | 106
49 | SGTEKKTAAGETPSQ | 791 | 2280 | 647 | 708 | 2660 | 105 | 552 | 383 | 1040 | 165 | 124
50 | GTENKAAAGGTPSPP | 547 | 660 | 3020 | 882 | 1490 | 150 | 407 | 1400 | 522 | 197 | 101
51 | KEKKAATGGAPSQPG | 218 | 1140 | 265 | 1240 | 454 | 217 | 141 | 134 | 295 | 106 | 127
52 | GKEKKTATGETPSQP | 560 | 21100 | 3880 | 6660 | 7560 | 206 | 110 | 126 | 85.6 | 128 | 102
53 | GKENKAAAGGTPSQS | 395 | 9390 | 7280 | 5120 | 14600 | 323 | 84.9 | 306 | 139 | 121 | 94.9
54 | TENKPAAGEAPSQSG | 17800 | 29500 | 310 | 496 | 15400 | 171 | 278 | 167 | 79.2 | 162 | 244
